# Experimental data from PubChem BioAssay AID652104 (National Center for Advancing Translational Sciences (NCATS), 2013).
# About 7,200 (1.8%) of roughly 410,000 compounds were called active. The shares of active, inactive and inconclusive entries below differ from those in the screen. The call rests on the fitted dose curve; in most records, active means well fitted activation curve with a large enough effect; inconclusive means small, poorly fitted or top-dose-only effect, or another doubt; inactive means no such curve, though single readings can be large or run the other way. Potencies of inconclusive entries are left out as doubtful fits.
# Assay: qHTS of TDP-43 Inhibitors; further: nearly all actives have a fitted effect of over 50% in size; on growth rescue (activation): % of control where 0% means no effect
# Conditions: TDP-43 expressing yeast growth rescue, BacTiter-Glo, 24 h; growth rescue (activation): at 46.1 µM (top of the series) unless noted
# In short: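 Yeast cells expressing TDP-43 under galactose induction are exposed to compounds for 24 hr at 30 deg C. BacTiter-Glo luminescence measures growth, so protective compounds score as activators.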
# Potency means the concentration at half of the fitted maximal effect; tags describe the fitted curve by direction and shape.
SMILES,Potency,growth rescue (activation)
Cc1ccc(-n2nnnc2-c2cnn(-c3ccc(F)cc3)c2C(F)(F)F)cc1,"inconclusive [activator, single point]",
COc1nc(-c2ccccc2)nnc1-c1ccccc1,"inconclusive [activator, partial curve]",
O=C(O)c1ccc(N2C(=O)CC(N3CCN(c4ccc(Cl)cc4)CC3)C2=O)cc1 (stereo unspecified),"inconclusive [activator, partial curve, poor fit]",
C[C@H]1CN(CCc2ccccc2)C(=O)[C@@H]1CC(=O)Nc1ccccc1,"inconclusive [activator, full curve, poor fit]",
CSc1cccc(N2CC(C(=O)NCCC3=CCCCC3)CC2=O)c1 (stereo unspecified),"inconclusive [activator, partial curve]",
Cc1cc(C)nc(SCc2nnc(SCc3ccccc3Cl)o2)n1,active: 15.8 µM,
COc1ccc(C(Cl)=C(C=O)c2ccc(OC)c(OC)c2)cc1OC,"inconclusive [activator, single point]",
CC1(C(=O)NCc2cccc3ccccc23)CCN1C(=O)C1(c2ccccc2)CC1 (stereo unspecified),"inconclusive [activator, full curve, poor fit]",
CC1(C(=O)NCc2cccs2)CCN1C(=O)Cc1ccc(Cl)cc1Cl (stereo unspecified),"inconclusive [activator, single point]",
Cc1ccccc1CNC(=O)c1oc2c(c1C)-c1[nH]ncc1CC2,"inconclusive [activator, partial curve]",
COc1ccc(-c2ccc(C(=O)N3CCOCC3)c3occc23)c(C)c1,active: 10 µM,
Cc1ccc2nc(Cl)c3cc(C(=O)N4CCCCC4C)sc3c2c1 (stereo unspecified),inactive,
COc1ccc2c(c1)CC(C(=O)NCCCN1CCN(c3cccc(Cl)c3)CC1)CO2 (stereo unspecified),inactive,
CCOC(=O)c1sc2ccccc2c1S(=O)(=O)N1CCN(c2cccc(C)c2)C(C)C1 (stereo unspecified),inactive,
COc1ccc(S(=O)(=O)NCC2CCCN(Cc3ccc(OC)cc3F)C2)cc1 (stereo unspecified),inactive,
O=C(CSc1ncc(-c2ccccc2)[nH]1)Nc1ccc(Cl)cc1,active: 22.4 µM,
Cc1ccc(/C=C\c2nccc3c2[nH]c2ccccc23)cc1,"inconclusive [activator, single point]",
O=C(c1ccc2c(c1)OCO2)N1CCN(c2ccc(Cl)cc2)CC1,"inconclusive [activator, partial curve]",
CCOC(=O)c1ccc(N2C(=O)CC(N3CC(C)OC(C)C3)C2=O)cc1 (stereo unspecified),"inconclusive [activator, single point]",
C[C@H](NC(=O)c1nc[nH]c1C(=O)N1CCN(C(=O)OC(C)(C)C)CC1)C(=O)OC(C)(C)C,"inconclusive [activator, partial curve]",
CCC(CC)C(=O)Nc1cc(C)c2c(=O)oc3ccccc3c2n1,"inconclusive [activator, partial curve]",
CC1Cc2ccccc2N1C(=O)CSc1nnc(CSc2ncccn2)n1C (stereo unspecified),inactive,
CCCCc1ccc(NC(=O)CC(C)(C)C)cc1,active: 20 µM,
COc1ccc(C(CNC(=O)COc2ccc(F)cc2Br)N2CCCC2)cc1 (stereo unspecified),"inconclusive [activator, full curve, poor fit]",

SMILES,Potency,growth rescue (activation)
Cc1cc(N2CCN(C(=O)c3ccco3)CC2)n2nc(C)c(-c3ccccc3)c2n1,"inconclusive [activator, partial curve]",
Cc1oc2ccc(O)c(CN3CCCC3)c2c1C(=O)Nc1ccc(C(C)C)cc1,inactive,
CC(=O)N/N=C/c1cc(C)n(-c2ccc(Br)cc2)c1C,"inconclusive [activator, single point]",
C#CCOc1ccc(-c2nnc(Nc3ccc(NC(C)=O)cc3)c3ccccc23)cc1,inactive,
COc1ccc(-c2cnc(C)o2)cc1S(=O)(=O)Nc1c(C)cc(C)cc1C,active: 25.1 µM,
CC(c1ccccc1)n1cc2c(c1-c1ccccc1Br)c(=O)n(C)c(=O)n2C (stereo unspecified),active: 14.1 µM,
CCc1cc(C(=O)Nc2sc(C)c(CC)c2C#N)no1,"inconclusive [activator, partial curve]",
CCCCOc1cccc(C(=O)Nc2cc(NC(=O)c3ccco3)ccc2OC)c1,"inconclusive [activator, partial curve]",
Cc1ccc(NC(=O)COC(=O)c2c(C)nn(-c3ccccc3)c2C)cc1,"inconclusive [activator, partial curve]",
CCOC(=O)c1ccc(NC(=O)c2nc[nH]c2C(=O)NCC(=O)OC(C)(C)C)cc1,active: 22.4 µM,
CCOC(=O)c1cc2c(ccn2-c2ccc(F)cc2)n1CC(=O)N(CC)CC,"inconclusive [activator, single point]",
CCCOc1ccc(C(=O)NCC2OCCc3ccccc32)cc1 (stereo unspecified),"inconclusive [activator, partial curve]",
Cc1ccc(C23CC4CC(CC(C(=O)NN)(C4)C2)C3)cc1,"inconclusive [activator, single point]",
COc1ccc2nc(N3CCCCC3)c(C#N)cc2c1,active: 12.6 µM,
COCCNC(=S)N/N=C(\C)c1ccc2cc(OC)ccc2c1,inactive,
COC(=O)Nc1ccc(SCC(=O)c2cccc([N+](=O)[O-])c2)cc1,"inconclusive [activator, single point]",
O=C1OCC(CO)(CO)N=C1NNc1ccc(Cl)c(Cl)c1,,inconclusive: -34.6% [activator]
O=C(CCC(=O)N1CCN(c2ccc(Cl)c(Cl)c2)CC1)c1ccccc1,"inconclusive [activator, single point]",
COc1ccc(-c2nc(C)c(CCNC(=O)c3cccs3)s2)cc1OC,active: 22.4 µM,
COc1ccccc1NC(=O)CCc1nc(-c2cccs2)no1,"inconclusive [activator, partial curve]",
Cc1ccc2nc(NC(=O)CSc3nccn3-c3ccc(Cl)cc3)sc2c1,inactive,
O=C(CSc1nnc(-c2ccccc2F)o1)Nc1cccc(C(F)(F)F)c1,"inconclusive [activator, partial curve]",
CCn1c2ccccc2c2cc(NC(=O)COC(=O)c3cc(OC)c(OC)cc3OC)ccc21,"inconclusive [activator, partial curve]",
CCCCc1ccc(NC(=S)Nc2cccnc2)cc1,"inconclusive [activator, partial curve, poor fit]",

SMILES,Potency,growth rescue (activation)
CCOC(=O)C1CCCN(C(=O)Cn2ncc3c(C)n(Cc4ccccc4Cl)c(C)c3c2=O)C1 (stereo unspecified),"inconclusive [activator, partial curve]",
CCc1ccc(CNC(=O)c2cc3ccccn3n2)cc1,"inconclusive [activator, partial curve]",
CC1CCCCN1C(=O)Cn1ncc2c3ccccc3n(Cc3ccccc3F)c2c1=O (stereo unspecified),,inactive: 2.09% [at 9.22 µM]
Cc1ccccc1CSc1nsc(N)n1,"inconclusive [activator, single point]",
O=C(Cn1sc2ccccc2c1=O)Nc1ccc(Br)cc1,"inconclusive [activator, full curve, poor fit]",
COc1ccc(Br)cc1C1Nc2cccc3cccc(c23)N1,"inconclusive [activator, partial curve]",
Cc1ccc(N2CN=C(c3ccccc3)NC2=S)cc1,"inconclusive [activator, single point]",
O=S(=O)(Cc1ccccc1)c1cnc2ccccc2n1,"inconclusive [activator, partial curve]",
CC(C)c1nc(SCC(=O)N2CCCC2)c2c(=O)n(C)c(=O)n(C)c2n1,inactive,
Cc1ccc(NC(=O)c2cccs2)cc1,inactive,
Nc1nn(-c2ccccc2)c(N)c1N=Nc1cccc(F)c1,"inconclusive [activator, partial curve]",
c1ccc(Cn2c(SCc3nc4ccccc4s3)nnc2-c2ccco2)cc1,active: 14.1 µM,
Cn1c(=O)c2cc(NC(=O)CCc3cccnc3)ccc2n1Cc1cccc(C(F)(F)F)c1,inactive,
Oc1ccc(Br)cc1CNc1cccc2cccnc12,inactive,
Cc1oc2ncn(CC(C)C)c(=O)c2c1C(=O)NCCc1ccccc1,"inconclusive [activator, single point]",
COc1cccc(OCC(=O)NCCS(=O)(=O)N2CCN(c3ccccc3F)CC2)c1,"inconclusive [activator, partial curve, poor fit]",
CN1C(=O)C(C)(C)c2cc(S(=O)(=O)N3CCN(c4cccc(Cl)c4)CC3)ccc21,"inconclusive [activator, partial curve]",
Cc1ccc(-c2nc(CNC(=O)Nc3ccccc3)c(C)o2)cc1,"inconclusive [activator, partial curve]",
Oc1ccc(/C(Cc2ccccn2)=N\Nc2ccccc2)c(O)c1,"inconclusive [activator, single point]",
COc1cc([N+](=O)[O-])ccc1NC(=O)Nc1ccc(C(=O)N2CCCC2)cc1,"inconclusive [activator, partial curve]",
Cc1ccc2c(c1)-c1c(cnn1CC(=O)N1CCN(c3ccccc3F)CC1)CO2,active: 20 µM,
Cc1nc2ccc(Br)cn2c1C(=O)N/N=C\c1ccc(C(C)C)cc1,inactive,
Cc1csc(NC(=S)Nc2cccc(Cl)c2)n1,"inconclusive [activator, single point]",
